Laboratory results from PubChem BioAssay AID1508623 (National Center for Advancing Translational Sciences (NCATS), 2021).
Screen size: about 48,000 compounds; about 450 (0.94%) were called active. Another 19% or so got no clear call; they are omitted. Calls come from the whole dose curve; as a rule, active = well fitted inhibition curve with a large enough effect; inconclusive = small, poorly fitted or top-dose-only effect; inactive = no such curve, though single readings can be large or run the other way. The list shows a part of the results.

test: Primary qHTS for Identification of Small Molecule Inhibitors of Huntingtin Promoter Activity; conditions: HEK293 HTT promoter firefly luciferase reporter (activity 0% = vehicle and -100% = no light), 24 h; series mostly up to 57.5 µM; activity change, negative = inhibition: at the top concentration; note: nearly all actives have a fitted effect of over 50% in size
In short: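 HEK293 cells carrying firefly luciferase reporters were seeded at 2,500 per well in Opti-MEM and cultured for 24 h. They were then treated with compounds at up to 57.5 uM final for 24 h at 37 degrees C before Dual-Glo luminescence readout.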

Activity change, negative = inhibition, inactive:
CCOC(=O)Cc1ccc(NC(=O)NCc2cccn2Cc2ccccc2)cc1 -23.8%
COc1ccc(-n2c(=O)c3sc4ccccc4c3n(CC(=O)Nc3ccccc3F)c2=O)cc1 13.2%
CCC(Cc1ccccc1)NC(=O)Cn1ncc2c3ccccc3n(Cc3ccccc3)c2c1=O (stereo not given) 5.7%
CCc1nc2nc(C)cc(Nc3ccc(OC)cc3OC)n2n1 -27.7%
CC(C)C1CCC(C(=O)N[C@H](Cc2ccccc2)C(=O)O)CC1 (stereo not given in full)
Cc1ccc2c(c1)NC(=O)C(CC(=O)Nc1ccccc1Cl)O2 (stereo not given) 3.07%
Cc1cc(C)n2nc(SCC(=O)Nc3ccccc3C)nc2n1 -8.37%
Cc1ccc(Cl)cc1N1CCN(C(=O)c2cc(S(=O)(=O)N3CCCC3)cn2C)CC1 -28.4%
C=Cc1ccc(CN2C(=O)N(c3ccc(CC)cc3)S(=O)(=O)c3ccccc32)cc1 -29.8%
COc1ccc(C)cc1NC(=O)CSc1nc(=O)n(Cc2ccncc2)c2c1CCC2 -3.5%
COc1ccc(C)cc1Nc1nc2cc(Cl)c(Cl)cc2nc1-n1nc(C)cc1C 6.8%
Cc1ccc(NC(=O)Cn2c(=O)n(-c3ccccc3)c(=O)c3c4c(sc32)CCCC4)cc1 -6.83%
COc1cc(NC(=O)CN2C(=O)COc3ccc(S(=O)(=O)N4CCCCC4)cc32)cc(OC)c1 -16.3%
CCCN1C(=O)C(Cc2nc3ccccc3c(=O)n2-c2ccccc2)c2cc(C)ccc21 (stereo not given) -29.8%
COC(=O)c1ccc(OCC2c3cc(OC)c(OC)cc3CCN2C(=O)C(C)C)cc1 (stereo not given) -28.3%
CCOC(=O)COc1ccc(C)cc1C(=O)c1ccn2nc(-c3ccc(C)cc3)cc2n1 -9.32%
O=C(CSc1ncc2c(n1)-c1ccccc1N(Cc1ccccc1)S2(=O)=O)Nc1ccccc1 -14.5%
COCCNC(=O)c1ccc(CSc2nc3ccncc3n2Cc2ccccc2)cc1 8.74%
CCC(=O)N1CCc2cc(S(=O)(=O)CCC(=O)N3CCN(c4cc(C)ccc4C)CC3)ccc21 4%
COc1cccc(NC(=O)CSc2nc3ccccc3n2C)c1 13%
CCOc1ccc(NC(=O)c2c(NC(=O)Cc3ccccc3)sc3c2CCC(C)C3)cc1 (stereo not given) -31.8%
COc1ccc(Cn2nnc(C(=O)Nc3cc(OC)ccc3OC)c2N)cc1 -5.31%
COCCCNC(=O)C1CCN(Cc2nc(-c3ccc(OC)c(OC)c3)oc2C)CC1 -6.31%
Cc1ccc(NC(=O)Cn2c(=O)n(Cc3ccco3)c(=O)c3ccc(C(=O)NC4CCCC4)cc32)c(C)c1 -7.04%
CCn1c(=O)cc(SCC(=O)NCCc2cc(OC)ccc2OC)c2ccccc21 -5.36%
CCOc1ccc(NC(=O)c2c(NCc3ccc(C)o3)sc3c2CCC(C)C3)cc1 (stereo not given) -30.3%
O=C(CN1C(=O)COc2ccc(S(=O)(=O)N3CCCC3)cc21)N1CCN(c2ccccc2)CC1 -8.58%
O=C(CSc1ncc2c(n1)-c1ccc(Cl)cc1N(Cc1ccccc1)S2(=O)=O)Nc1ccc(F)c(F)c1 -21.4%
COc1ccc2c(Sc3ccccc3)c(C(=O)NCCc3ccc(Cl)cc3)[nH]c2c1 5.18%
CCOC(=O)C1CCCN(CC(=O)N2CCCc3c2c(=O)oc2ccc(OCc4ccccc4)cc32)C1 (stereo not given) -28%
CCN1CCN(CCCNC(=O)c2cc3c(s2)-c2ccccc2OC3)CC1 12.3%
COc1cc(OC)cc(C(=O)Nc2cc(-c3nc4cc(Cl)ccc4o3)ccc2Cl)c1 51.5%
CCc1ccc(NC(=O)c2sc3ncnc(N(C)C4CCCCC4)c3c2C)cc1 -29.7%
CCOc1ccc(C2C(C(N)=O)=C(C)Nc3nc(SCc4ccccc4)nn32)cc1 (stereo not given) -5.06%
CC(=O)C1=C(c2ccc(C)cc2)N(C(C)=O)n2c(nnc2C2CCCCC2)S1 -10.5%
CCCCNC(=O)CSc1nc2ccccc2nc1Cc1ccc(C)cc1 -7.79%
COc1cccc(CN2C(=O)c3ccccc3Sc3ccc(C(=O)N(C)Cc4ccccc4)cc32)c1 -29.9%
COc1cccc2cc(-c3nc(Nc4cccc(C)c4)sc3C)c(=O)oc12 -22.6%
O=C(c1cccs1)c1cn(CCOc2ccccc2F)c2ccccc12 -6.34%
COc1cc(C2c3c(-c4ccccc4O)n[nH]c3C(=O)N2CCO)ccc1OCc1ccccc1 (stereo not given) -28.3%
CCOC(=O)c1ccccc1NC(=O)c1c2c(nc3ccccc13)C(=O)N(C1CCCCC1)C2 -11.9%
COc1ccc(C(=O)Nc2nc3nc(C)c(Cc4ccccc4)c(=O)n3[nH]2)cc1OC -12.6%
Cc1ccc(CNC(=O)COCc2cc(-c3cccs3)on2)cc1 -6.72%
CCOc1ccc(CNC(=O)C2CCN(S(=O)(=O)N3CCC(C)CC3)CC2)cc1OC -6.25%
CC1=C(C(=O)Nc2cccnc2)C(c2cccc(Br)c2)n2nc(SCc3ccccc3)nc2N1 (stereo not given) -6.4%
COc1cc(NC(=O)C2CCN(c3cnc4ccccc4n3)CC2)cc(OC)c1OC -16.2%
CCCc1cc(=O)n2[nH]c(NC(=O)c3ccc(C(C)(C)C)cc3)nc2n1 -24%
CC1=C(C(=O)Nc2ccccc2C)C(c2ccncc2)n2nc(SCc3ccccc3Cl)nc2N1 (stereo not given) -15.2%
Cc1cccc(-c2noc(-c3ccccc3NC(=O)C3CC(=O)N(c4ccccc4C)C3)n2)c1 (stereo not given) 9.54%
CCn1c(=O)c2cc(C(=O)Nc3cc(OC)c(OC)c(OC)c3)sc2c2ccccc21 -6.69%
Cn1ccc2cc(S(=O)(=O)N3CCCC(C(=O)NCc4ccccc4)C3)ccc21 (stereo not given) 0%
O=C(COc1ccc(F)cc1)OCc1cc(=O)n2nc(C3CCCCC3)sc2n1 -8.62%
Cc1cc(-c2ccc(C)c(S(=O)(=O)NC(c3cccs3)C(C)C)c2)on1 (stereo not given) -46.5%
O=C(NCCS(=O)(=O)N1CCN(c2ccccc2)CC1)C1CC(=O)N(c2ccc(F)cc2)C1 (stereo not given) -7.96%
COc1ccc(NC(=O)CCSc2nc(-c3ccc(OC)cc3)cc(C(F)(F)F)n2)cc1 -5.34%
CCc1nnc(SCc2c(F)cccc2Cl)c2cc3sccc3n12 4.45%
Cc1ccc(NC(=O)Cn2cc(C(=O)C3CC3)c3ccccc32)c(C)c1 8.68%
CC(C)CCNC(=O)c1ccc2c(c1)NC(=O)C(CS(=O)(=O)Cc1ccc(F)cc1)N2 (stereo not given) -2.81%
CC1=C(C(=O)N2CCN(c3cc(C)ccc3C)CC2)C2(CCC(C)CC2)OC1=O (stereo not given) -9.88%
COc1ccc(C(C(=O)NCc2ccccc2)N(C(=O)Cn2nnc3ccccc32)c2cccc(OC)c2)cc1 (stereo not given) -6.5%
